The source of these data is ChEMBL document CHEMBL4888484, “Replenishing the malaria drug discovery pipeline: Screening and hit evaluation of the MMV Hit Generation Library 1 (HGL1) against asexual blood stage Plasmodium falciparum ,using a nano luciferase reporter read-out” (2022).

The structures appear in SMILES notation. Among all 150,000 compounds or so, about 540 (0.36%) showed an effect of 50% or more. Some of the results follow.

The experiment deals with Plasmodium falciparum. The experiment in a line: Primary screen in NF54 nanoGlo assay, in single point, at 2uM, 72h; a lower Z score goes with more inhibition. Type of experiment: functional, Erythrocyte. The note with it: timepoint 72 hour.
Usually % Inhibition stands for the relative decrease from the control value, in per cent. On to `Cc1cc(S(=O)(=O)NCCCOC(C)C)cc(C(=O)O)c1C`, for which the “% Inhibition” value is recorded as -2% and the Z score turned out to be 0.22.
Turning to `Cc1ccc(NC(=O)CN(c2ccccc2)c2n[nH]c(=S)s2)c(C)c1`, the “% Inhibition” value is -46% and the Z score came out at 5.45.
`Cc1cc(C)cc(-n2nc(C)nc2CNC2CC2)c1`: the “% Inhibition” value is recorded as -11% and the Z score worked out at 2.03.
Taken in the same sequence, the figures for `Cc1cccc(Cl)c1OCCN[C@H]1CCC(=O)N(CC2CC2)CC1` were -14% and 1.36.
With `CCC1(C(=O)N[C@H]2CC[C@H](Nc3ccccn3)CC2)COC1`, the “% Inhibition” value is 4% and the Z score is listed as -0.79.
Turning to `O=c1[nH]c2ccccc2c(NCc2ccccc2)c1N1CCN(c2ccccc2)CC1`, the “% Inhibition” value came to 34% and the Z score was -4.55.
The matching figures for `CCC1=NO[C@@H](CNC(=O)C2Cc3ccccc3C2)C1`: -10% and 1.14.
For `COCCNC(=O)N1CCC[C@H](Oc2ccc(C)nn2)C1`, the “% Inhibition” value is reported as -8% and the Z score is 0.93.
`CC(CCc1ccc2c(c1)OCO2)NC(=O)N1C[C@@H](O)C[C@H]1CO` (stereo partly specified): the “% Inhibition” value is -12% and the Z score is 1.65.
`Cn1nccc1CCC(=O)N1CC[C@@](O)(c2ccccc2)[C@H]2CCCC[C@H]21`: the “% Inhibition” value came to 0% and the Z score is -0.07.
`Cc1cc(C(=O)N(CCCO)Cc2ccc(Cl)cc2)nc(C)n1`: the “% Inhibition” value amounted to 6% and the Z score is -1.16.
As to `Cc1[nH]c(=O)[nH]c(=O)c1S(=O)(=O)N(C1CCCCC1)C1CCCCC1`, the “% Inhibition” value is given as -10% and the Z score worked out at 1.86.
The matching figures for `CC(C)(C)C(=O)Nc1ccccc1C(N)=O`: -12% and 1.56.
With `COC(=O)N1CCc2ccc(F)cc2[C@@H]1C(=O)Nc1cc(C(F)(F)F)ccc1Cl`, the “% Inhibition” value was -8% and the Z score amounted to 1.31.
Taken in the same sequence, the figures for `CN1CCC(N(Cc2cccnc2)Cc2nnc(-c3ccccc3)o2)CC1` were -29% and 2.92.
Taken in the same sequence, the figures for `CCCn1cnnc1CN(C)c1cc(C(C)C)nc(N)n1` were -17% and 2.46.
Taken in the same sequence, the figures for `CN(C(=O)c1ccc(Cl)o1)[C@H]1CCN(c2ccccc2)C1=O` were 2% and -0.36.
For the compound `COc1ccnc(C(=O)N2CCn3nc(CO)cc3C2)c1`, the “% Inhibition” value is -9% and the Z score was found to be 1.85.
Turning to `CCn1nc(C(=O)N[C@H]2CCCc3ccccc32)cc1-c1ccc(C(C)(C)C)cc1`, the “% Inhibition” value is 3% and the Z score was -0.44.
The matching figures for `CN(C(=O)Nc1nncs1)C1CCC(c2ccccc2)CC1` (stereo unspecified): 1% and -0.19.
Taken in the same sequence, the figures for `CCN(Cc1ccc(C)c2ncccc12)C[C@H]1CCCCO1` were 2% and -0.41.
For `CCn1nncc1C(=O)Nc1cnn([C@@H](C)c2ccccc2)c1`, the “% Inhibition” value is -7% and the Z score was 0.94.
`COC(=O)c1ccc2c(c1)CCCCN2Cc1cn(C)nn1`: the “% Inhibition” value turned out to be 9% and the Z score was -1.79.
As for `CC(C)c1noc(CN2CCN(CC(=O)N[C@@H](C)c3ccc(F)cc3F)CC2)n1`, the “% Inhibition” value is recorded as -8% and the Z score was found to be 1.04.
The matching figures for `COc1ccc(C2(CNC(=O)C3(N)CC4(CCC4)C3)CCCCC2)cc1OC`: -12% and 1.96.
The matching figures for `CC(=O)N1CC[C@H](NC(=O)N2CCN(CCC(C)(C)C)CC2)C1`: -9% and 1.11.
Taken in the same sequence, the figures for `CC(C)Cc1cc(C(=O)N2CCc3[nH][nH]c(=O)c3CC2)[nH]n1` were 0% and -0.05.
For the compound `CNC(=O)CCCC(=O)Nc1ccc(Br)cc1O`, the “% Inhibition” value is -9% and the Z score is recorded as 0.88.
The matching figures for `Nc1cc(-c2ccc(Br)o2)ncn1`: -8% and 0.97.
The matching figures for `COc1ccc(CN2Cc3cc(NC(=O)c4cccc(OC)c4)ccc3O[C@@H](C)C2=O)cc1`: -5% and 0.96.
The matching figures for `CC(=O)N1c2ccccc2C[C@H]1c1nc(C(C)(C)c2ccc(Cl)cc2)no1`: -6% and 1.
Take `CCCN(CC(N)=O)c1ncc(-c2ccccc2)s1`: the “% Inhibition” value was -10% and the Z score is reported as 0.98.
Taken in the same sequence, the figures for `COc1nc(NCC2(CO)CCCC2)ncc1F` were -7% and 0.69.
Taken in the same sequence, the figures for `O=C(Cc1nc[nH]n1)N1CCCS(=O)(=O)C[C@H]1c1ccccc1` were -7% and 1.31.
As to `O=C(c1cc2sccc2[nH]1)N(CCC(F)(F)F)Cc1ccccc1`, the “% Inhibition” value is -2% and the Z score turned out to be 0.21.
Taken in the same sequence, the figures for `Cc1ccccc1Cn1cnc2c1c(=O)n(C1CCCCC1)c(=O)n2-c1ccc(F)c(F)c1` were 4% and -0.71.
Taken in the same sequence, the figures for `Cc1ccnc(NCCCOC2CCCCC2)n1` were -19% and 2.1.
Taken in the same sequence, the figures for `COc1cccc(C2=NS(=O)(=O)N(C)C(C(=O)N3CCN(c4ccccc4)CC3)=C2)c1` were 0% and 0.06.
`CC(=O)Nc1ccc(S(=O)(=O)Nc2ccc3nncn3n2)cc1`: the “% Inhibition” value is 28% and the Z score was -3.13.
The matching figures for `Cc1cc(C(=O)NC[C@]2(O)CCOc3ccccc32)no1`: 8% and -1.04.
Take `COc1ccc2cc(CN3C[C@@H](C(=O)O)C[C@@H](C(=O)NC4CC4)C3)ccc2c1`: the “% Inhibition” value was 3% and the Z score was -0.45.
The matching figures for `CCC(CC)C(=O)N1CCCN(C(=O)c2ccncc2)[C@H](c2nc(C)n[nH]2)C1`: -3% and 0.59.
Taken in the same sequence, the figures for `CCc1c(C)sc2c1CCN(CC(=O)NCc1ccc3c(c1)OCO3)[C@@H]2c1ccccc1` were -14% and 1.41.
